# Reference: the supplement of paper PMC8728848
# This is one part of the list.
# Columns and labels:
# Experiment in all cases: glycan array binding signal (z-score within array); higher = stronger binding
# Settings in all cases: glycan notation: IUPAC condensed, linker removed
# [1] = molecular target: Gal(b1-4)GlcNAc(b1-2)Man(a1-6)[GlcNAc(b1-2)Man(a1-3)]Man(b1-4)GlcNAc(b1-4)GlcNAc
# Summary of the method: (§1)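 Glycan array data were curated from 3228 arrays in the Consortium for Functional Glycomics database and kept only where the protein sequence was available. Glycan names were converted to IUPAC-condensed notation, and columns mapping to the same glycan were averaged. The binding signal is a within-array Z-score, averaged across arrays of the same protein sequence at different concentrations or buffers and across linkers. Negative Z-scores can be read as non-binding.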
# [2] = molecular target: Gal(b1-4)GlcNAc(b1-2)Man(a1-6)[Man(a1-3)]Man(b1-4)GlcNAc(b1-4)GlcNAc
# Summary of the method: as §1
# [3] = molecular target: Gal(b1-4)GlcNAc(b1-2)[Gal(b1-4)GlcNAc(b1-4)]Man(a1-3)[Gal(b1-4)GlcNAc(b1-2)Man(a1-6)]Man(b1-4)GlcNAc(b1-4)GlcNAc
# Summary of the method: as §1
# [4] = molecular target: Gal(b1-4)GlcNAc(b1-2)[Gal(b1-4)GlcNAc(b1-4)]Man(a1-3)[Gal(b1-4)GlcNAc(b1-2)[Gal(b1-4)GlcNAc(b1-6)]Man(a1-6)]Man(b1-4)GlcNAc(b1-4)GlcNAc
# Summary of the method: as §1
# [5] = molecular target: Gal(b1-4)GlcNAc(b1-2)[Gal(b1-4)GlcNAc(b1-4)]Man(a1-3)[GlcNAc(b1-4)][Gal(b1-4)GlcNAc(b1-2)Man(a1-6)]Man(b1-4)GlcNAc(b1-4)GlcNAc
# Summary of the method: as §1
# [6] = molecular target: Gal(b1-4)GlcNAc(b1-2)[Gal(b1-4)GlcNAc(b1-4)]Man(a1-3)[GlcNAc(b1-4)][Gal(b1-4)GlcNAc(b1-2)[Gal(b1-4)GlcNAc(b1-6)]Man(a1-6)]Man(b1-4)GlcNAc(b1-4)GlcNAc
# Summary of the method: as §1
# [7] = molecular target: Gal(b1-4)GlcNAc(b1-2)[Gal(b1-4)GlcNAc(b1-6)]Man(a1-6)[Gal(b1-4)GlcNAc(b1-2)Man(a1-3)]Man(b1-4)GlcNAc(b1-4)GlcNAc
# Summary of the method: as §1
# [8] = molecular target: Gal(b1-4)GlcNAc(b1-2)[Gal(b1-4)GlcNAc(b1-6)]Man(a1-6)[Gal(b1-4)GlcNAc(b1-2)Man(a1-3)]Man(b1-4)GlcNAc(b1-4)[Fuc(a1-6)]GlcNAc
# Summary of the method: as §1
# [9] = molecular target: Gal(b1-4)GlcNAc(b1-2)[Gal(b1-4)GlcNAc(b1-6)]Man(a1-6)[GlcNAc(b1-4)][Gal(b1-4)GlcNAc(b1-2)Man(a1-3)]Man(b1-4)GlcNAc(b1-4)GlcNAc
# Summary of the method: as §1
# [10] = molecular target: Gal(b1-4)GlcNAc(b1-2)[Gal(b1-4)GlcNAc(b1-6)]Man(a1-6)[GlcNAc(b1-4)][Gal(b1-4)GlcNAc(b1-2)[Gal(b1-4)GlcNAc(b1-4)]Man(a1-3)]Man(b1-4)GlcNAc(b1-4)[Fuc(a1-6)]GlcNAc
# Summary of the method: as §1
# [11] = molecular target: Gal(b1-4)GlcNAc(b1-3)Gal(b1-3)GalNAc
# Summary of the method: as §1
# [12] = molecular target: Gal(b1-4)GlcNAc(b1-3)Gal(b1-3)GlcNAc
# Summary of the method: as §1
# [13] = molecular target: Gal(b1-4)GlcNAc(b1-3)Gal(b1-4)Glc
# Summary of the method: as §1
# [14] = molecular target: Gal(b1-4)GlcNAc(b1-3)Gal(b1-4)GlcNAc
# Summary of the method: as §1
# [15] = molecular target: Gal(b1-4)GlcNAc(b1-3)Gal(b1-4)GlcNAc(b1-2)Man(a1-3)[Gal(b1-4)GlcNAc(b1-3)Gal(b1-4)GlcNAc(b1-2)Man(a1-6)]Man(b1-4)GlcNAc(b1-4)GlcNAc
# Summary of the method: as §1
# [16] = molecular target: Gal(b1-4)GlcNAc(b1-3)Gal(b1-4)GlcNAc(b1-2)Man(a1-3)[Gal(b1-4)GlcNAc(b1-3)Gal(b1-4)GlcNAc(b1-2)Man(a1-6)]Man(b1-4)GlcNAc(b1-4)[Fuc(a1-6)]GlcNAc
# Summary of the method: as §1
# [17] = molecular target: Gal(b1-4)GlcNAc(b1-3)Gal(b1-4)GlcNAc(b1-2)[Gal(b1-4)GlcNAc(b1-3)Gal(b1-4)GlcNAc(b1-6)]Man(a1-6)[Gal(b1-4)GlcNAc(b1-3)Gal(b1-4)GlcNAc(b1-2)Man(a1-3)]Man(b1-4)GlcNAc(b1-4)GlcNAc
# Summary of the method: as §1
# [18] = molecular target: Gal(b1-4)GlcNAc(b1-3)Gal(b1-4)GlcNAc(b1-2)[Gal(b1-4)GlcNAc(b1-3)Gal(b1-4)GlcNAc(b1-6)]Man(a1-6)[Gal(b1-4)GlcNAc(b1-3)Gal(b1-4)GlcNAc(b1-2)Man(a1-3)]Man(b1-4)GlcNAc(b1-4)[Fuc(a1-6)]GlcNAc
# Summary of the method: as §1
# [19] = molecular target: Gal(b1-4)GlcNAc(b1-3)Gal(b1-4)GlcNAc(b1-3)Gal(b1-4)GlcNAc
# Summary of the method: as §1
# [20] = molecular target: Gal(b1-4)GlcNAc(b1-3)Gal(b1-4)GlcNAc(b1-3)Gal(b1-4)GlcNAc(b1-2)Man(a1-3)[Gal(b1-4)GlcNAc(b1-3)Gal(b1-4)GlcNAc(b1-3)Gal(b1-4)GlcNAc(b1-2)Man(a1-6)]Man(b1-4)GlcNAc(b1-4)GlcNAc
# Summary of the method: as §1
# [21] = molecular target: Gal(b1-4)GlcNAc(b1-3)Gal(b1-4)GlcNAc(b1-3)Gal(b1-4)GlcNAc(b1-2)Man(a1-3)[Gal(b1-4)GlcNAc(b1-3)Gal(b1-4)GlcNAc(b1-3)Gal(b1-4)GlcNAc(b1-2)Man(a1-6)]Man(b1-4)GlcNAc(b1-4)[Fuc(a1-6)]GlcNAc
# Summary of the method: as §1
# [22] = molecular target: Gal(b1-4)GlcNAc(b1-3)Gal(b1-4)GlcNAc(b1-3)Gal(b1-4)GlcNAc(b1-2)[Gal(b1-4)GlcNAc(b1-3)Gal(b1-4)GlcNAc(b1-3)Gal(b1-4)GlcNAc(b1-6)]Man(a1-6)[Gal(b1-4)GlcNAc(b1-3)Gal(b1-4)GlcNAc(b1-3)Gal(b1-4)GlcNAc(b1-2)Man(a1-3)]Man(b1-4)GlcNAc(b1-4)[Fuc(a1-6)]GlcNAc
# Summary of the method: as §1
binder,measurement,setting,value
"CFEM-PPm (Pichia pastoris), F2QPV1 (protein) AVATPPACLLACAAEVVKESSDCDALNNIQCICENEGSAIHACLESTCPDGLSSTALQSFEDVCE",glycan array binding signal (z-score),[1],-0.21
same,glycan array binding signal (z-score),[2],-0.432
same,glycan array binding signal (z-score),[3],0.196
same,glycan array binding signal (z-score),[4],-0.194
same,glycan array binding signal (z-score),[5],-0.449
same,glycan array binding signal (z-score),[6],-0.315
same,glycan array binding signal (z-score),[7],-0.21
same,glycan array binding signal (z-score),[8],-0.078
same,glycan array binding signal (z-score),[9],-0.387
same,glycan array binding signal (z-score),[10],-0.174
same,glycan array binding signal (z-score),[11],-0.305
same,glycan array binding signal (z-score),[12],-0.298
same,glycan array binding signal (z-score),[13],-0.204
same,glycan array binding signal (z-score),[14],-0.037
same,glycan array binding signal (z-score),[15],1.53
same,glycan array binding signal (z-score),[16],-0.026
same,glycan array binding signal (z-score),[17],0.243
same,glycan array binding signal (z-score),[18],0.039
same,glycan array binding signal (z-score),[19],-0.304
same,glycan array binding signal (z-score),[20],0.512
same,glycan array binding signal (z-score),[21],-0.007
same,glycan array binding signal (z-score),[22],0.318
